Reference: PubChem BioAssay AID1508642 (National Center for Advancing Translational Sciences (NCATS), 2021)
Out of some 43,000 compounds screened, about 200 (0.47%) were called active. Inconclusive results (about 12%) are left out. Calls follow the shape of the dose curve; as a rule, active = well fitted cell-killing curve with a large enough effect; inconclusive = small, poorly fitted or top-dose-only effect, or effect the other way; inactive = flat fitted curve, though single readings scatter. The list shows a part of the results.

test: Cell viability qHTS assay in S16 Pmp22-F2sN cells; conditions: S16 Pmp22-F2sN Schwann cells (luciferase reporters placed in the Pmp22 gene) viability, CellTiter-Glo, 24 h; series mostly up to 57.5 µM; activity change, negative = cytotoxicity: at the top concentration; also: nearly all actives have a fitted effect of over 65% in size
Procedure, shortened: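 S16 Schwann cells carrying the Pmp22-F2sN reporter, seeded in 1536-well format, were exposed to library compounds for 24 h at 37C. Viability was read as CellTiter-Glo luminescence after 15 min at room temperature.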
% is scaled to controls: 0 for no effect and ±100 for the full control effect.

| SMILES | activity change, negative = cytotoxicity |
| --- | --- |
| O=C(Cn1ccc2cc(S(=O)(=O)N3CCCC3)ccc21)NCc1ccccc1Cl | inactive: 5.29% |
| Cc1ccc(-c2nnc(Nc3cccc(Br)c3)c3ccccc23)cc1S(=O)(=O)NCC1CCCO1 (stereo not drawn) | inactive: -27.2% |
| O=C(c1ccc2c(c1)N(Cc1ccc(Cl)cc1)C(=O)c1ccccc1S2(=O)=O)N1CCc2ccccc21 | inactive: 0.373% |
| Cc1ccc(NC(=O)CCCn2nc(C)c3sc4ccccc4c3c2=O)c(Cl)c1 | inactive: 7.44% |
| COC(=O)c1ccccc1NC(=O)CSc1nnc2cc(C)c3cc(C)cc(C)c3n12 | inactive: 1.21% |
| CCC(C(=O)Nc1cccc(C#N)c1)n1nc(-c2ccccc2)ccc1=O (stereo not drawn) | inactive: -22% |
| O=C(NCc1ccc(F)cc1)C(=O)NCC(c1ccco1)S(=O)(=O)c1cccs1 (stereo not drawn) | inactive: -16% |
| CCOC(=O)N1CCc2c(sc3c2c(=O)n(-c2ccc(F)cc2)c(=O)n3CC(=O)c2ccccc2)C1 | inactive: -0.267% |
| Cc1cccc(CN2C(=O)c3ccccc3Sc3ccc(C(=O)NCc4cccs4)cc32)c1 | inactive: 2.22% |
| O=C(NCCc1ccccc1)C1COc2ccccc2C1 (stereo not drawn) | inactive: -15.4% |
| Cc1cc(=O)n(CC(=O)NC(C)c2ccccc2)c2c1c(C)nn2C (stereo not drawn) | inactive: -27.3% |
| CCOC(=O)c1c(NC(=O)c2cc3ccccc3c(=O)o2)sc2c1CCC(C(C)(C)C)C2 (stereo not drawn) | inactive: -3.02% |
| CCc1ccc(NC(=O)c2cc(C)nn2-c2ccccc2)cc1 | inactive: -1.93% |
| O=C(NCc1ccccc1Cl)C1CCN(c2ncnc3c2nc2n3CCCCC2)CC1 | inactive: 0.115% |
| COc1ccc(-c2csc(-c3c(N)c(C(=O)c4ccccc4)n4ccccc34)n2)cc1 | inactive: 5.48% |
| Cc1cc(C)n2c(Nc3cccc(C(F)(F)F)c3)c(-c3ccsc3)nc2n1 | inactive: -9.72% |
| Cc1nnc(NC(=O)CSCc2cc(=O)c3ccc(C)c(C)c3[nH]2)s1 | inactive: 1.03% |
| CCn1cc2nc(SCc3cccc(F)c3)n(CCc3ccccc3)c(=O)c2n1 | inactive: -16.2% |
| CCC(Cc1ccccc1)NC(=O)Cn1ncc2c3ccccc3n(Cc3ccc(F)cc3)c2c1=O (stereo not drawn) | inactive: -16.3% |
| O=C(O)CCn1ccc2cc(S(=O)(=O)N3CCCCC3)ccc21 | inactive: -22% |
| CCC(=O)N1c2ccccc2CC1C(=O)NCCc1ccc(Cl)cc1 (stereo not drawn) | inactive: 13.3% |
| O=C(CN1CCN(c2ccc(Cl)cc2)CC1)Nc1ccc(F)c(F)c1 | inactive: 5.92% |
| O=C(Cn1nnnc1-c1ccccc1F)Nc1ccc(F)c(F)c1 | inactive: 1.57% |
| Cc1cc(C)cc(-n2ccnc2SCC(=O)Nc2ccc(C)c(Cl)c2)c1 | inactive: 12.9% |

| SMILES | activity change, negative = cytotoxicity |
| --- | --- |
| CCOc1ccccc1NC(=O)c1nnn(CC(=O)Nc2ccccc2CC)c1N | inactive: 5.95% |
| COc1ccc(NC(=O)c2[nH]nc3c2CSc2ccccc2-3)c(OC)c1 | inactive: 2.25% |
| CC(C)c1ccc(S(=O)(=O)c2cnc(SCC(=O)Nc3ccc(F)cc3F)nc2N)cc1 | inactive: 25.3% |
| Cc1ccc(-n2nc3c(N4CCC(C(=O)NCCC(C)C)CC4)nnc(C)c3c2C)cc1 | inactive: -27% |
| Cc1ccc2oc(=O)c3cc(C(=O)Nc4cccc(C#N)c4)sc3c2c1 | inactive: -3.8% |
| COCc1cc(C)n(CC(=O)Nc2cccc(C(C)=O)c2)c(=O)c1C#N | inactive: -2.01% |
| Cc1ccc(-c2nc3cc(NC(=O)c4cc(Br)ccc4Cl)ccc3o2)cc1 | inactive: 0.538% |
| CCOc1ccccc1C(=O)N1CCCCC1CCN1CCOCC1 (stereo not drawn) | inactive: 16.6% |
| CCCOc1cccc(C2c3c(oc4cc(C)c(C)cc4c3=O)C(=O)N2CCCN2CCOCC2)c1 (stereo not drawn) | inactive: 16.8% |
| CCC(=O)N1CCc2cc(S(=O)(=O)NC(C(=O)NCCc3ccc(C)cc3)C(C)C)ccc21 (stereo not drawn) | inactive: -0.484% |
| CCOc1cc2[nH]c(=O)n(CCCCCC(=O)NC(C)CC)c(=O)c2cc1OCC (stereo not drawn) | inactive: 4.57% |
| COc1ccc(N2CCN(Cc3nc(-c4ccc(C)cc4)no3)CC2)cc1 | inactive: 14.3% |
| CC1CCN(S(=O)(=O)c2cn(CC(=O)Nc3ccc(F)cc3)c(=O)c3ccccc23)CC1 | inactive: -24.4% |
| CCCN(CCC)CCCNC(=O)C1CCN(S(=O)(=O)c2cccc3nsnc23)CC1 | inactive: 4.87% |
| CCOc1ccc(S(=O)(=O)N2CCN(c3ccc(C)cc3C)CC2)c2ccccc12 | inactive: -2.09% |
| CCN(C(=O)c1ccc2c(=O)n3c(nc2c1)CCCCC3)c1cc(C)ccc1C | inactive: 16.3% |
| Cc1ccc(C(=O)CC2(O)C(=O)N(Cc3ccccc3)c3ccc(Br)cc32)cc1 (stereo not drawn) | inactive: -26.1% |
| O=C1COc2ccc(-c3cc(-c4ccc(F)cc4)c4c(n3)-c3ccccc3OC4)cc2N1 | inactive: 24.4% |
| CCCCNS(=O)(=O)c1ccc2nc(-c3cccnc3)cc(C(=O)NCCCOCC)c2c1 | inactive: -22.1% |
| Cc1ccc(NC(=O)COCc2cc(-c3cccs3)on2)cc1Cl | inactive: -2.63% |
| CCCCOC(=O)c1ccc(NC(=O)/C(C#N)=C/c2ccc(C)o2)cc1 | inactive: 8.4% |
| COC(=O)c1ccc(NC(=O)CN(c2cccc(C(F)(F)F)c2)S(C)(=O)=O)cc1 | inactive: 2.41% |
| Cc1cccc(-n2c(SCC(=O)Nc3ccccc3C)nc3c(oc4ccccc43)c2=O)c1 | inactive: -1.93% |
| CCc1ccccc1N1C(=O)N(C)c2ccccc2S1(=O)=O | inactive: 16.2% |
